Source: the RNAGym collection of RNA variant scans (doi:10.1093/nar/gkz1192)
Read counts are not given, so values of variants with three or more changes are uncertain.

B1: CPEB3 Ribozyme (parent)
chain: UAACAGGGGGCCACAGCAGAAGCGUUCACGUCGCAGCCCCUGUCAGAUUCUGGUGAAUCUGCGAAUUCUGCUGUAUAUCUC

Variants of: B1
Assay: self-cleavage, relative activity (ratio to wild type); higher = more cleavage; in vitro, sequencing
Summary of the method: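 Relative activity was defined as the cleaved/total read fraction for a variant divided by the same fraction for the unmutated ribozyme. CPEB3 self-cleaving ribozyme libraries were made by rounds of error-prone PCR, barcoded, and transcribed in vitro with T7 RNA polymerase for 5 hours at 37°C, and cleavage ran through transcription plus a 15 min DNase I step before EDTA. Illumina sequencing of template-switched reverse transcripts gave the reads, and DNA sequencing mapped the barcodes. Averages come from three batches, using variants with at least 5 reads.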
Variant A5U U43A U54C U80C has a self-cleavage of 1.18. A5G U58C U78A showed a self-cleavage of 0.41. Variant A5G U48C U54A has a self-cleavage of 0.38. For A5U A64G A65G, the self-cleavage was 0.19. Work on A5U C17A U43C A64G yielded a self-cleavage of 0.09. Work on A5U C23U A57G U58C yielded a self-cleavage of 0.54. A5U A28U U31A A45U A56G U60A U72C showed a self-cleavage of 0.65. For A5U A35G A56G U78G, the self-cleavage was 1.3. A5U A64U U80C gave a self-cleavage of 0.23. A5G G53U C79U gave a self-cleavage of 0.89. A5U C23G A35U U76A gave a self-cleavage of 0.09. In the case of A5U C44A A45G U48C U78C U80C, the self-cleavage is reported as 0.09. In the case of A5U A15G U48C, the self-cleavage is reported as 0.9. A5G U60C U74A showed a self-cleavage of 0.22. With A5U A21G A35G G36U U48C U67C A75G the self-cleavage was 0.05. In the case of A5U G8U A45G A64G U80C, the self-cleavage is reported as 0.08. Variant A5U G7C C40A has a self-cleavage of 0.14. Work on A5G U43G A45G yielded a self-cleavage of 0.5. Work on A5U A18G U25C A35G U74C yielded a self-cleavage of 0.13. With A5G U26C U31C G52U the self-cleavage was 0.12. With A5G U26C C32A U48C C68U A77G U78A the self-cleavage was 0.1. For A5G U26A A28G A45C U54C, the self-cleavage was 0.11. Work on A5U G8U U41A A57G U58C U69C U76A yielded a self-cleavage of 0.1. In the case of A5G U54C A57G U58A, the self-cleavage is reported as 0.21. For A5U A13G A18G G55A U67C U80C, the self-cleavage was 0.08. In the case of A5G U25A A56U, the self-cleavage is reported as 0.2. A5U A18G U67A U72C showed a self-cleavage of 0.42. For A5U U31A A45U U49A U66C, the self-cleavage was 0.09. Variant A5U C12U A18U U43C has a self-cleavage of 0.34. In the case of A5U A20G U41C U51A, the self-cleavage is reported as 1.04. A5U U31C G42A U49A gave a self-cleavage of 0.45. For A5G U67C U74C, the self-cleavage was 0.46. With A5U A21U U49G U54A U60G the self-cleavage was 0.08. Work on A5U A15C A45C U49C U58A U67C yielded a self-cleavage of 0.12. Work on A5G U31C C50U yielded a self-cleavage of 0.67. Work on A5G U41A U80C yielded a self-cleavage of 0.6. Work on A5U G9C U48C A57G U69C yielded a self-cleavage of 0.07. A5U A47G A57U showed a self-cleavage of 0.43. A5U A13G C23G U26C U49C U60C C62G gave a self-cleavage of 0.04. With A5G U69A A75G the self-cleavage was 0.31. Variant A5U A45U U69C has a self-cleavage of 0.24. Variant A5G U31C A35U A64G U78C has a self-cleavage of 0.17. For A5U A21G U76C, the self-cleavage was 1.15. A5U G30A U48C U49C showed a self-cleavage of 0.08. A5G U25C C39A U69A showed a self-cleavage of 0.34. A5U C50U U67C gave a self-cleavage of 0.22. A5U U51A C59A showed a self-cleavage of 0.26. In the case of A5G U25C C44A U69A, the self-cleavage is reported as 0.17. For A5U A21G A47U A57U A64G, the self-cleavage was 0.15. A5U A13U U26C U72C showed a self-cleavage of 0.67. A5G U51C U69A showed a self-cleavage of 0.14. For A5G U26A A57G A65G U67C, the self-cleavage was 0.15. With A5U A15G A18G U49A C50U U54G the self-cleavage was 0.09. Work on A5U A21G U43A U69C U72C yielded a self-cleavage of 0.18. With A5U U25C G33C U72C the self-cleavage was 0.06. Variant A5U G22A U25C U26A has a self-cleavage of 0.44. With A5U C23U U25C A47G U80C the self-cleavage was 0.11. A5G U49A U72G gave a self-cleavage of 0.46. In the case of A5U U26C U41C U51A C59U U66C C81A, the self-cleavage is reported as 0.11. Work on A5U C17U U25C A64G C79G U80C yielded a self-cleavage of 0.21. Variant A5G G53A U66C has a self-cleavage of 0.27. A5U A15G A21G showed a self-cleavage of 0.7. With A5U C11U A28G C79U the self-cleavage was 0.37. In the case of A5U C12A U26A C40G U41C C50U A64G, the self-cleavage is reported as 0.18. A5U A18U A21U A47U A57G showed a self-cleavage of 0.06. A5U A20G U60C U76C gave a self-cleavage of 0.6. In the case of A5G U43G A64G, the self-cleavage is reported as 0.24. A5U A18U U31C C34U U41A showed a self-cleavage of 0.12. For A5U U51C U69C U74A, the self-cleavage was 0.81. For A5G U31C G33A, the self-cleavage was 0.09. A5G U26C A56G showed a self-cleavage of 0.54. For A5U A13G U69C, the self-cleavage was 0.39. A5U A15G U25C A45U U74A C79A gave a self-cleavage of 0.11. With A5G U26C U41A C50A U54G the self-cleavage was 0.1. For A5U A45U A77G, the self-cleavage was 0.75. With A5U A13G U72A U78C the self-cleavage was 0.98. With A5G U26C U43A U60C U67C the self-cleavage was 0.33. For A5G U31A U51A U60C, the self-cleavage was 0.1. In the case of A5U G7A U31C A65G U72C U74C U80C, the self-cleavage is reported as 0.03. With A5U C14U A15U A28G U31C U43A the self-cleavage was 0.35. In the case of A5U A35U U49C U51A U78G, the self-cleavage is reported as 0.31. Work on A5U U31C U58C yielded a self-cleavage of 0.5. Variant A5U A47G U51C A56U has a self-cleavage of 0.25.
